# Assay results as given in the supplement of paper PMC4604168 (melanoma cell lines).
# The other results are listed elsewhere or left out. Single values are uncertain, as repeats are few or missing.
# Assays:
# Assay in all cases: cell count relative to DMSO control; melanoma cells; higher = more viable cells
# Conditions in all cases: library dose: standard library concentration; 72 h
# [1] = tested on: G361
# [2] = tested on: IPC-298
# [3] = tested on: IST-MEL1
# [4] = tested on: LB2518-MEL
# [5] = tested on: LOXIMVI
# [6] = tested on: MEL-HO
# [7] = tested on: MZ2-MEL
# [8] = tested on: MeWo
# [9] = tested on: RPMI7951
# [10] = tested on: RVH-421
# 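Note: cells treated in 1,536-well plates, then fixed and DAPI-stained, with nuclei counted from automated high-throughput microscope images.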
SMILES,cell count [1],cell count [2],cell count [3],cell count [4],cell count [5],cell count [6],cell count [7],cell count [8],cell count [9],cell count [10]
"C=C(c1ccc(C(=O)O)cc1)c1cc2c(cc1C)C(C)(C)CCC2(C)C [Bexarotene] + O=C(CCCCCCC(=O)Nc1ccccc1)NO [vorinostat] (first compound 10 µM, partner dose 0.4 µM)",51.8%,74.6%,74.6%,68.3%,82.8%,76.6%,80.2%,84.4%,41.4%,74.4%
"NC1(c2ccc(-c3nc4ccn5c(=O)[nH]nc5c4cc3-c3ccccc3)cc2)CCC1 + O=c1cc(-c2cccc3c2Sc2ccccc2S3)oc(N2CCOCC2)c1 [KU55933] (first compound 2 µM, partner dose 5 µM)",71.6%,90.9%,79.2%,81.5%,116%,60.4%,78.9%,85%,92.5%,79.3%
"CN(c1ncccc1CNc1nc(Nc2ccc3c(c2)CC(=O)N3)ncc1C(F)(F)F)S(C)(=O)=O + COc1ccc2c(c1)CCC1C2CCC2(C)C(NCCCCCCN3C(=O)C=CC3=O)CCC12 [U73122] (first compound 0.4 µM, partner dose 2 µM)",104%,102%,105%,108%,84.5%,104%,109%,70%,71.8%,111%
"CN(c1ncccc1CNc1nc(Nc2ccc3c(c2)CC(=O)N3)ncc1C(F)(F)F)S(C)(=O)=O + NC1(c2ccc(-c3nc4ccn5c(=O)[nH]nc5c4cc3-c3ccccc3)cc2)CCC1 [MK2206] (first compound 0.4 µM, partner dose 2 µM)",70.5%,76%,83.3%,64.1%,96.7%,73.4%,76.6%,76.2%,49.3%,71.7%
"CS(=O)(=O)c1ccc(C(=O)Nc2ccc(Cl)c(-c3ccccn3)c2)c(Cl)c1 [vismodegib] + O=S(=O)(c1ccccc1)N(CC(F)(F)F)c1ccc(C(O)(C(F)(F)F)C(F)(F)F)cc1 [T0901317] (first compound 5 µM, partner dose 7 µM)",74.8%,74.5%,93.7%,93.4%,113%,88.2%,91.7%,83.9%,82%,117%
"NC1(c2ccc(-c3nc4ccn5c(=O)[nH]nc5c4cc3-c3ccccc3)cc2)CCC1 + CO[C@H]1C[C@@H]2CC[C@@H](C)[C@@](O)(O2)C(=O)C(=O)N2CCCC[C@H]2C(=O)O[C@H]([C@H](C)C[C@@H]2CC[C@@H](OCCO)[C@H](OC)C2)CC(=O)[C@H](C)/C=C(\C)[C@@H](O)[C@@H](OC)C(=O)[C@H](C)C[C@H](C)/C=C/C=C/C=C/1C [everolimus] (first compound 2 µM, partner dose 0.1 µM)",46.5%,62%,53.8%,64.8%,49.4%,56.6%,64.4%,48.9%,68.9%,67%
"NC1(c2ccc(-c3nc4ccn5c(=O)[nH]nc5c4cc3-c3ccccc3)cc2)CCC1 + O=C(Nc1ccccc1)c1cc([N+](=O)[O-])ccc1Cl [GW9662] (first compound 2 µM, partner dose 10 µM)",74.1%,87.2%,87.1%,77.7%,86.3%,69%,74.8%,69.3%,74.8%,74.5%
"CCCS(=O)(=O)Nc1ccc(F)c(C(=O)c2c[nH]c3ncc(Cl)cc23)c1F + CN(NC(=O)CC(=O)NN(C)C(=S)c1ccccc1)C(=S)c1ccccc1 [STA4783] (first compound 0.4 µM, partner dose 0.03 µM)",29.6%,56.6%,8.24%,23.6%,90.5%,74.5%,95.7%,14.8%,71.4%,36.2%
"CS(=O)(=O)c1ccc(C(=O)Nc2ccc(Cl)c(-c3ccccn3)c2)c(Cl)c1 [vismodegib] + Cn1nnc2c(C(N)=O)ncn2c1=O [temozolomide] (first compound 5 µM, partner dose 10 µM)",81.7%,83.4%,78.1%,108%,79.9%,91.6%,85.9%,89.2%,120%,96.5%
"NC1(c2ccc(-c3nc4ccn5c(=O)[nH]nc5c4cc3-c3ccccc3)cc2)CCC1 + O=C(CCCCCCC(=O)Nc1ccccc1)NO [vorinostat] (first compound 2 µM, partner dose 0.4 µM)",68.3%,86.1%,74.3%,74.5%,68.2%,63.3%,101%,80.7%,72.4%,74.9%
"CCCS(=O)(=O)Nc1ccc(F)c(C(=O)c2c[nH]c3ncc(Cl)cc23)c1F + OCCn1cc(-c2cnc3nnn(Cc4ccc5ncccc5c4)c3n2)cn1 [PF04217903] (first compound 0.4 µM, partner dose 5 µM)",57.3%,80.8%,103%,104%,85.5%,72.4%,77.4%,87.8%,73.9%,75.1%
"NC1(c2ccc(-c3nc4ccn5c(=O)[nH]nc5c4cc3-c3ccccc3)cc2)CCC1 + OCCn1cc(-c2cnc3nnn(Cc4ccc5ncccc5c4)c3n2)cn1 [PF04217903] (first compound 2 µM, partner dose 5 µM)",91.2%,119%,79.9%,74.2%,97.5%,83.2%,103%,86%,88.3%,79.4%
"NC1(c2ccc(-c3nc4ccn5c(=O)[nH]nc5c4cc3-c3ccccc3)cc2)CCC1 + CCCCCCCCCCCC1=C(O)C(=O)C=C(O)C1=O [Embelin] (first compound 2 µM, partner dose 6 µM)",74.7%,76.8%,68%,72.1%,88.2%,67.4%,86.1%,73.9%,70.9%,64.3%
"CS(=O)(=O)c1ccc(C(=O)Nc2ccc(Cl)c(-c3ccccn3)c2)c(Cl)c1 [vismodegib] + NCC(=O)Nc1ccc(-n2nc(C(F)(F)F)cc2-c2ccc3c(ccc4ccccc43)c2)cc1 [OSU03012] (first compound 5 µM, partner dose 5 µM)",63.6%,58.4%,82.3%,94.6%,90.6%,76.5%,93.7%,100%,90.7%,86%
"CS(=O)(=O)c1ccc(C(=O)Nc2ccc(Cl)c(-c3ccccn3)c2)c(Cl)c1 [vismodegib] + CC(C)(C)c1cnc(CSc2cnc(NC(=O)C3CCNCC3)s2)o1 [SNS-032] (first compound 5 µM, partner dose 0.05 µM)",78.6%,114%,108%,74.8%,86.5%,101%,105%,109%,40.7%,81.9%
"C=C(c1ccc(C(=O)O)cc1)c1cc2c(cc1C)C(C)(C)CCC2(C)C [Bexarotene] + CC1(C)NC(=O)N(c2ccc([N+](=O)[O-])c(C(F)(F)F)c2)C1=O [nilutamide] (first compound 10 µM, partner dose 5 µM)",87.6%,95.7%,78.1%,101%,147%,99.8%,108%,88.3%,106%,80.3%
"CS(=O)(=O)c1ccc(C(=O)Nc2ccc(Cl)c(-c3ccccn3)c2)c(Cl)c1 [vismodegib] + CN(c1ncccc1CNc1nc(Nc2ccc3c(c2)CC(=O)N3)ncc1C(F)(F)F)S(C)(=O)=O [PF562271] (first compound 5 µM, partner dose 0.4 µM)",72.5%,87.5%,102%,99.9%,139%,96.4%,110%,94.2%,58.7%,112%
"CN(c1ncccc1CNc1nc(Nc2ccc3c(c2)CC(=O)N3)ncc1C(F)(F)F)S(C)(=O)=O + O=C1NC(=O)/C(=C/c2ccc(-c3ccc(F)cc3O)o2)S1 [AS252424] (first compound 0.4 µM, partner dose 5 µM)",76.3%,83.6%,88.6%,94.6%,85.9%,74.1%,83.7%,85.3%,86.9%,96.9%
"NC1(c2ccc(-c3nc4ccn5c(=O)[nH]nc5c4cc3-c3ccccc3)cc2)CCC1 + O=S(=O)(c1ccccc1)N(CC(F)(F)F)c1ccc(C(O)(C(F)(F)F)C(F)(F)F)cc1 [T0901317] (first compound 2 µM, partner dose 7 µM)",85.9%,87.1%,79%,86%,68.3%,83%,79.9%,65.7%,61.3%,110%
"C=C(c1ccc(C(=O)O)cc1)c1cc2c(cc1C)C(C)(C)CCC2(C)C [Bexarotene] + COCC[n+]1c2c(n(Cc3cnccn3)c1C)C(=O)c1ccccc1C2=O [YM155] (first compound 10 µM, partner dose 0.002 µM)",88.3%,60.4%,54.5%,65.9%,79.2%,125%,6.93%,62.2%,72.5%,114%
"C=C(c1ccc(C(=O)O)cc1)c1cc2c(cc1C)C(C)(C)CCC2(C)C [Bexarotene] + CCc1ccc(CCOc2ccc(CC3SC(=O)NC3=O)cc2)nc1 [pioglitazone] (first compound 10 µM, partner dose 10 µM)",86.3%,77.1%,91.7%,103%,163%,87%,87%,76.3%,58.8%,78.6%
"C=C(c1ccc(C(=O)O)cc1)c1cc2c(cc1C)C(C)(C)CCC2(C)C [Bexarotene] + C=CCNC1=C2C[C@@H](C)C[C@H](OC)[C@H](O)[C@@H](C)/C=C(\C)[C@H](OC(N)=O)[C@@H](OC)/C=C\C=C(/C)C(=O)NC(=CC1=O)C2=O [Tanespimycin] (first compound 10 µM, partner dose 0.01 µM)",57.2%,78.2%,53.1%,68%,105%,74.7%,93.7%,59.1%,18.9%,101%
